According to publication PMC4336329 (PLoS ONE, 2015):
About 2,200 (0.71%) of roughly 310,000 compounds showed an effect of 50% or more. The effect is printed as a negative number. Some of the results follow.

Target: human ether-à-go-go-related gene (hERG) potassium channel (human, UniProt Q12809)
Experiment: primary screen, population patch clamp on CHO cells stably expressing hERG

Chain of human ether-à-go-go-related gene (hERG) potassium channel (Q12809 whole entry, looked up): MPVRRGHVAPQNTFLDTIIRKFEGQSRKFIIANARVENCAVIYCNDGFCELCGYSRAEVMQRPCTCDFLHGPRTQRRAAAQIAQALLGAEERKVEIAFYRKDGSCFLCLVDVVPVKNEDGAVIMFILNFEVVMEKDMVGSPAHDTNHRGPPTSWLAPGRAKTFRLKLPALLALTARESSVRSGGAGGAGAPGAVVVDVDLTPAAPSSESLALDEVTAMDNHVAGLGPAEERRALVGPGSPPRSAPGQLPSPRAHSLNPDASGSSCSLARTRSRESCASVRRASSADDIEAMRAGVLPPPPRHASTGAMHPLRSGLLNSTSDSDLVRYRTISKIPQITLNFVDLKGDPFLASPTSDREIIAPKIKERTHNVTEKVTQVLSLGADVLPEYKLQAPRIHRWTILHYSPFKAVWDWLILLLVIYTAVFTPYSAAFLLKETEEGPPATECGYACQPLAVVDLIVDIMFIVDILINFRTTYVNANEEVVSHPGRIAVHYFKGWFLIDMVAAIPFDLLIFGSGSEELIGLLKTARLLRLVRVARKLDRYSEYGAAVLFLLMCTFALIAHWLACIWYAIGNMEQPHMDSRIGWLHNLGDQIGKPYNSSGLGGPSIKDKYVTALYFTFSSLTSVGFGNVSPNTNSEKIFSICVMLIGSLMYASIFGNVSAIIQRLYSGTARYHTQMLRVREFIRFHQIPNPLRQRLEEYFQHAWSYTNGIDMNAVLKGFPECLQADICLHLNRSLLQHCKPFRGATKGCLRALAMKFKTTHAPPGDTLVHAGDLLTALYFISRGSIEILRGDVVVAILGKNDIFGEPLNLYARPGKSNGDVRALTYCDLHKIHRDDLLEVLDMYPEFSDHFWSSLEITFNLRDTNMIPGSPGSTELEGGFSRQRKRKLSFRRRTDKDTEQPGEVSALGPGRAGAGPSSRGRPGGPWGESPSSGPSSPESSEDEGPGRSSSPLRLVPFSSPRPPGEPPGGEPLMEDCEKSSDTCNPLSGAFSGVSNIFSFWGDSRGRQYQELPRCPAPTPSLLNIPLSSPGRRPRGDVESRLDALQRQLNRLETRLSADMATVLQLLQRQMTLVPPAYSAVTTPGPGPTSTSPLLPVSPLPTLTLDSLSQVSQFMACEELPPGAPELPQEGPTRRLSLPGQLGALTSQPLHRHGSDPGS

Row | Structure (SMILES) | hERG current change (%, negative = inhibition) at 1uM [%]
1 | COc1ccc(CNC(=O)COC(=O)c2ccccc2OCC(=O)Nc2ccc(SC(F)F)cc2)cc1 | 3.83
2 | Cc1ccccc1Oc1nc2c(C)cccn2c(=O)c1/C=C(\C#N)C(=O)NC1CCS(=O)(=O)C1 (stereo not shown) | 2.94
3 | CN(C)S(=O)(=O)c1ccc(C(=O)Nc2cccc(C(=O)N3CCOCC3)c2)cc1 | 9.08
4 | CCOC(=O)c1cc(C)n(S(=O)(=O)c2ccc(C)cc2)c1C | 2.01
5 | COc1ccc(C2=[N+]([O-])C(C)(C)C(c3ccccc3)=N2)cc1 | 3.03
6 | NC(=O)c1cc(Br)cc(C2CCCCC2)c1O | 15.2
7 | COc1ccc(C(=O)N(c2ccc(OC)cc2)S(=O)(=O)c2cccs2)cc1 | 13.5
8 | CC1CCCC(NC(=O)c2ccc3c(c2)OCO3)C1C (stereo not shown) | 8.11
9 | COc1cc(C(=O)N2CCC(NC(=O)C(Cc3ccccc3)NC(C)=O)CC2)cc(OC)c1OC (stereo not shown) | -8.85
10 | CN(C)/C=C/C(=O)c1ccc([N+](=O)[O-])c(CS(=O)(=O)c2ccc(Cl)cc2)c1 | -10.9
11 | COc1ccc(NC(=S)N(CCCN2CCOCC2)C(C)c2cc3cccc(OC)c3o2)cc1 (stereo not shown) | 3.7
12 | Cc1ccc(C(=O)COc2ccccc2N2C(=O)c3ccccc3C2=O)cc1 | 8.44
13 | Cc1ccccc1C(=O)NC(=S)Nc1sc2c(c1C#N)CCCC2 | -3.13
14 | NC(=O)C1CCN(C(=O)CC2(CC(=O)O)CCCC2)CC1 | 20.6
15 | COC(=O)c1cccc(NC(=O)Cn2cnc3ccccc3c2=O)c1 | 10.4
16 | O=C(CN1CCN(Cc2ccccc2)CC1)NC(=O)NC1CCCCC1 | -16.1
17 | c1cncc(Cc2cc3ccccc3[nH]2)c1 | 2.84
18 | COc1cccc(C(=O)Nc2ccncc2)c1 | 10.6
19 | Cc1ccc(-c2nnc(SCc3nc4ccccc4[nH]3)n2Cc2ccco2)cc1 | 1.29
20 | Cc1ccc(N2CC(C(=O)Nc3nc4ccc(S(C)(=O)=O)cc4s3)CC2=O)cc1 (stereo not shown) | 1.3
21 | CCS(=O)(=O)n1nc(-c2cccnc2)nc1NCc1ccc(F)cc1 | 5.95
22 | CCOC(=O)c1c(NC(=O)CSc2cccc[n+]2[O-])sc(C(=O)Nc2ccccc2)c1C | 9.46

Row | Structure (SMILES) | hERG current change (%, negative = inhibition) at 1uM [%]
23 | CCC(=O)NC(c1ccc(C)cc1)c1ccc2cccnc2c1O (stereo not shown) | 12.9
24 | COc1ccccc1OCC(=O)NCCSCc1ccccc1Cl | 12.4
25 | COc1ccccc1NS(=O)(=O)c1cc(C(=O)NCC(c2ccc(F)cc2)N2CCOCC2)ccc1C (stereo not shown) | 11.2
26 | COC(=O)c1c(NC(C)=O)sc2c1CCN(Cc1ccccc1)C2.Cl | 9.96
27 | N#CC(C#N)=Cc1ccc(-c2ccccc2F)o1 | 11.4
28 | Cc1cc(-c2ccccc2)nc(SCC(=O)N2CCCC2)n1 | 6.86
29 | S=c1[nH]nc(C2CCCCC2)n1/N=C/c1ccccc1Br | 14.2
30 | Cc1nn2c(N)c(C#N)cnc2c1-c1ccc(Cl)cc1 | 4.37
31 | O=C(NCCCO)c1cc2c([nH]c3ccccc32)c(-c2ccccc2)n1 | 10.4
32 | COc1ccc(NC(=O)NC2CCCCCCC2)c(OC)c1 | 9.77
33 | O=[N+]([O-])c1cccc(/C=N/Nc2nc(N3CCOCC3)nc(N3CCOCC3)n2)c1 | 6.07
34 | CCCOc1ccc(N2C(=O)C3ON(c4ccccc4)C(c4ccc(O)c(OC)c4)C3C2=O)cc1 (stereo not shown) | 7.71
35 | Cc1ccccc1NS(=O)(=O)c1ccc(NC(=O)CSCc2ccc(Br)cc2)cc1 | 15.9
36 | N#Cc1ccccc1OCC(=O)N1CCN(C(=O)c2ccco2)CC1 | 12.8
37 | O=C(NCC1CCCO1)C1CCN(S(=O)(=O)c2cccc3cccnc23)CC1 (stereo not shown) | 12.3
38 | Cc1cc2ccccc2n1CCNC(=O)C(C)Oc1ccccc1 (stereo not shown) | 9.73
39 | O=C(Cn1nc(C(=O)O)c2ccccc2c1=O)Nc1cc(Cl)cc(Cl)c1 | 16.2
40 | O=c1[nH][nH]c(-c2ccccc2)c1C=Nc1ccc(C(F)(F)F)cc1 | 13.5
41 | CC(Sc1nc(-c2ccccc2)cc(C(F)(F)F)n1)C(=O)NCc1ccco1 (stereo not shown) | 4.96
42 | NS(=O)(=O)c1cnccc1Oc1cccc(Cl)c1 | 15.6
43 | O=C(CCCC(=O)Nc1ccc(Br)cc1)N/N=C/c1ccccc1 | 10.6
44 | O=C(Nc1ccc(-c2nc3ccccc3[nH]2)cc1)c1cccc(N2C(=O)CCC2=O)c1 | 5.42

Row | Structure (SMILES) | hERG current change (%, negative = inhibition) at 1uM [%]
45 | O=C(NCCN1CCN(C(=O)C(c2ccccc2)c2ccccc2)CC1)C(=O)Nc1ccccc1 | 8.21
46 | NC(=O)c1c(NC(=O)CSc2nnc(-c3ccco3)n2N)sc2c1CCCC2 | 13.8
47 | CCNS(=O)(=O)c1cccc(C(=O)c2c(C)cc3ccccn23)c1 | 22.7
48 | Cc1ccc(S(=O)(=O)Cc2csc(N)n2)cc1 | 14.2
49 | CC1=CC(C)C2C(=O)N(c3ccccc3)NC(=O)C2C1 (stereo not shown) | 6.46
50 | COc1ccccc1CC(=O)Nc1cccc(C(=O)NN2C(=O)c3ccccc3C2=O)c1 | 1.52
51 | C=CCNC(=O)c1cc2c(=O)c3ccccc3oc2nc1C | -6.21
52 | Cc1noc(C)c1C(=O)OCC(=O)/C=C1\N(C)c2ccccc2C1(C)C | 11.4
53 | COC(=O)C1CN(C(=O)c2ccc(OC(F)F)cc2)c2ccccc2O1 (stereo not shown) | 12
54 | CN1CCN(/N=C/c2c(O)n(C)c(=O)n(C)c2=O)CC1 | 4.43
55 | Cc1csc(NC(=O)CSc2nnnn2C)n1 | 8.07
56 | Cc1ccccc1Cn1cc(C)c(=O)[nH]c1=O | 8.08
57 | CC(C)NCC(O)COCCOc1ccc(Br)cc1.Cl (stereo not shown) | 3.86
58 | COC(=O)c1ccccc1NC(=O)C/C(C)=N/NC(=O)Cc1ccc(Cl)cc1 | 16.3
59 | CC1=NN(c2ccc(C(F)(F)F)cn2)C(=O)C1 | -0.755
60 | CCC(=NCCCn1ccnc1)c1c(O)n(-c2ccc(OC)cc2)c(=O)[nH]c1=O | 13.5
61 | COc1cc(C(=O)NCc2nnc(SCC(=O)Nc3nc4ccccc4s3)o2)cc(OC)c1OC | 3.64
62 | CCOc1ccccc1N(CC)C(=O)Cn1ncc2c(=O)oc3ccccc3c21 | 8.12
63 | CC(C)(C)NCC(O)COc1cccc2[nH]c(=O)[nH]c12.Cl (stereo not shown) | 9.19
64 | CC(=O)Nc1ccc(Nc2nnc(-c3ccc(O)cc3)c3ccccc23)cc1 | 1.76
65 | COc1ccc(C(=O)N2CCCC(c3ccccc3)C2)cc1 (stereo not shown) | 14.1
66 | O=C(Nc1ccccc1O)c1ccc([N+](=O)[O-])cc1 | 6.93

Row | Structure (SMILES) | hERG current change (%, negative = inhibition) at 1uM [%]
67 | CC1=C(C(=O)Nc2ccccc2)C(c2ccc(N(C)C)cc2)NC(=O)N1 (stereo not shown) | 14.2
68 | O=C(CSc1nnc(-c2ccccc2F)o1)Nc1ccc(N2CCOCC2)cc1 | 7.84
69 | O=C(NC(=S)Nc1ccccc1F)c1ccc(Br)o1 | 10.2
70 | CC(=O)N(c1ccc(C)cc1)c1nc(C)cc(C)c1C#N | 8.3
71 | C/C(=N\NC(=O)CC#N)c1ccc(Oc2ccccc2)cc1 | 0.211
72 | CC(=O)Nc1ccc(Oc2ccc(-c3noc(C)n3)cc2)cc1 | 3.05
73 | COc1cc(C(=O)NC(=S)Nc2ccc3[nH]c(=O)[nH]c3c2)cc(OC)c1OC | 12.1
74 | CCCCCCCCC(=O)N/N=C(\C)c1cccnc1 | 13.6
75 | CCS(=O)(=O)c1nc(S(=O)(=O)c2ccc(Cl)cc2)c(N2CCC(O)CC2)s1 | 14.5
76 | CCn1c(Cc2c(C)[nH]c3ccccc23)nnc1SCC(N)=O | 15.6
77 | Cc1cccc(NC(=O)COC(=O)c2cccc(S(=O)(=O)N3CCCCCC3)c2)c1 | -5.26
78 | O=C(COC(=O)[C@H](Cc1ccccc1)NC(=O)c1cccs1)Nc1cc(F)ccc1F | 6.72
79 | Cc1ccc(N2CC(c3nc4ccccc4n3C)CC2=O)cc1 (stereo not shown) | -1.51
80 | COc1cc(C)c(NC(=O)c2cc(C3CC3)nc3c2cnn3C(C)C)cc1OC | 2.51
81 | CCOc1ccc2nc(NC(=O)CS(=O)(=O)c3ccc(C)cc3)sc2c1 | 7.74
82 | CC1=C(C(=O)N2CCCC(C(=O)c3cccc(C(F)(F)F)c3)C2)OCCO1 (stereo not shown) | 14.7
83 | CS(=O)(=O)N1CCN(C(=O)Cc2ccc(Br)cc2)CC1 | 17.6
84 | O=C(Nc1c(C(=O)N2CCOCC2)cnn1-c1ccccc1)c1ccccc1F | 18
85 | C/C(=N\NC(=O)c1ccc(F)cc1)c1ccc(NC(=O)Cc2ccccc2)cc1 | -3.9
86 | CC(C)C(c1nnnn1CCc1ccccc1)N1CCC(C(N)=O)CC1 (stereo not shown) | 10.7
87 | O=C(CN1C(=O)c2ccccc2C1=O)NC1CCCCCC1 | 11.8
88 | CCOC(=O)Cc1csc(NC(=O)CCN2C(=O)c3ccccc3C2=O)n1 | 1.96
